Consider 11 molecules from patent publication US20190169308A1 (ALLIGATOR BIOSCIENCE, published 2019).

Where a chain is given by its changes, count along the chain named.

Usually Kd stands for the free concentration of one partner at which half of the binding sites on the other are occupied at equilibrium, for simple one-to-one binding. The term koff denotes the first-order rate constant of dissociation. A word on the kon: it is a measure of how fast the partners come together.

T1: Human 5T4 (produced in-house) (human, UniProt Q13641 32-355, limits assumed)
T1 sequence (looked up): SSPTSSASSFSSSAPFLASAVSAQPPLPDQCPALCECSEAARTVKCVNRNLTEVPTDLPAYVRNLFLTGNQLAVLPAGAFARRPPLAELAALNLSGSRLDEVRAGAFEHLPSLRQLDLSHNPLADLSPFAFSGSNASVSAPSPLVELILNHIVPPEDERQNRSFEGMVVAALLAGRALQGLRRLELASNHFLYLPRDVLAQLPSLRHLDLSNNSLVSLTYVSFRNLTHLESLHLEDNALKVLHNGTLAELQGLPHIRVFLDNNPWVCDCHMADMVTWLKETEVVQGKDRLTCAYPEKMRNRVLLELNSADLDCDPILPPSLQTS

B1: 1210-1618LO4 (bispecific antibody, human IgG1, kappa)
heavy: [no letters for about 100 residues]YYGGYYSAWMDYWGQGTLVTVSS[no letters for human IgG1 constant region with changes]GGGGSGGGGSEVQLLESGGGLVQPGGSLRLSCAASGFTFDYGSMYWVRQAPGKGLEWVSSISSGSGSTYYADSVKGRFTISRDNSKNTLYLQMNSLRAEDTAVYYCARSSYYGSYYSIDYWGQGTLVTVSSGGGGSGGGGSGGGGSDIQMTQSPSSLSASVGDRVTITCRASQSISQYLNWYQQKPGKAPKLLIYSAESLQSGVPSRFSGSGSGTDFTLTISSLQPEDFATYYCQQYYDNLPTFGQGTKLEIK
light: DIQMTQSPSSLSASVGDRVTITCRASQSISSYLNWYQQKPGKAPKLLIYAASSLQSGVPSRFSGSGSGTDFTLTISSLQPEDFATYYCQQTYGYLHTFGQGTKLEIKRTVAAPSVFIFPPSDEQLKSGTASVVCLLNNFYPREAKVQWKVDNALQSGNSQESVTEQDSKDSTYSLSSTLTLSKADYEKHKVYACEVTHQGLSSPVTKSFNRGEC
B2: 1210-1618LO11 (bispecific antibody, human IgG1, kappa)
heavy: [no letters for about 100 residues]YYGGYYSAWMDYWGQGTLVTVSS[no letters for human IgG1 constant region with changes]GGGGSGGGGSEVQLLESGGGLVQPGGSLRLSCAASGFTFDYGSMYWVRQAPGKGLEWVSSISSGSGSTYYADSVKGRFTISRDNSKNTLYLQMNSLRAEDTAVYYCARSSYYGSYYSIDYWGQGTLVTVSSGGGGSGGGGSGGGGSDIQMTQSPSSLSASVGDRVTITCRASQSISSYLNWYQQKPGKAPKLLIYAASSLHSGVPSRFSGSGSGTDFTLTISSLQPEDFATYYCQQYYDNLPTFGQGTKLEIK
light: B1 light
B3: 1210-1618LO8 (bispecific antibody, human IgG1, kappa)
heavy: [no letters for about 100 residues]YYGGYYSAWMDYWGQGTLVTVSS[no letters for human IgG1 constant region with changes]GGGGSGGGGSEVQLLESGGGLVQPGGSLRLSCAASGFTFDYGSMYWVRQAPGKGLEWVSSISSGSGSTHYADSVKGRFTISRDNSKNTLYLQMNSLRAEDTAVYYCARSSYYGSYYSIDYWGQGTLVTVSSGGGGSGGGGSGGGGSDIQMTQSPSSLSASVGDRVTITCRASQSIRSYLNWYQQKPGKAPKLLIYGADSLQSGVPSRFSGSGSGTDFTLTISSLQPEDFATYYCQQYYDNLPTFGQGTKLEIK
light: B1 light
B4: 1210-1618LO9 (bispecific antibody, human IgG1, kappa)
heavy: [no letters for about 100 residues]YYGGYYSAWMDYWGQGTLVTVSS[no letters for human IgG1 constant region with changes]GGGGSGGGGSEVQLLESGGGLVQPGGSLRLSCAASGFDFSYGSMYWVRQAPGKGLEWVSSISSGSGSTYYADSVKGRFTISRDNSKNTLYLQMNSLRAEDTAVYYCARSSYYGSYYSIDYWGQGTLVTVSSGGGGSGGGGSGGGGSDIQMTQSPSSLSASVGDRVTITCRASQSIRQYLNWYQQKPGKAPKLLIYGAESLQSGVPSRFSGSGSGTDFTLTISSLQPEDFATYYCQQYYDNLPTFGQGTKLEIK
light: B1 light
B5: 1210-1618LO12 (bispecific antibody, human IgG1, kappa)
heavy: [no letters for about 100 residues]YYGGYYSAWMDYWGQGTLVTVSS[no letters for human IgG1 constant region with changes]GGGGSGGGGSEVQLLESGGGLVQPGGSLRLSCAASGFTFSYGSMYWVRQAPGKGLEWVSSISSGSGSTHYADSVKGRFTISRDNSKNTLYLQMNSLRAEDTAVYYCARSSYYGSYYSIDYWGQGTLVTVSSGGGGSGGGGSGGGGSDIQMTQSPSSLSASVGDRVTITCRASQSISSYLNWYQQKPGKAPKLLIYGASSLHSGVPSRFSGSGSGTDFTLTISSLQPEDFATYYCQQYYDNLPTFGQGTKLEIK
light: B1 light
B6: 1210-1618LO5 (bispecific antibody, human IgG1, kappa)
heavy: [no letters for about 100 residues]YYGGYYSAWMDYWGQGTLVTVSS[no letters for human IgG1 constant region with changes]GGGGSGGGGSEVQLLESGGGLVQPGGSLRLSCAASGFTFDYGSMYWVRQAPGKGLEWVSSISSGSGSTYYADSVKGRFTISRDNSKNTLYLQMNSLRAEDTAVYYCARSSYYGSYYSIDYWGQGTLVTVSSGGGGSGGGGSGGGGSDIQMTQSPSSLSASVGDRVTITCRASQSIRSYLNWYQQKPGKAPKLLIYSASSLQSGVPSRFSGSGSGTDFTLTISSLQPEDFATYYCQQYYDNLPTFGQGTKLEIK
light: B1 light
B7: 1210-1618LO13 (bispecific antibody, human IgG1, kappa)
heavy: [no letters for about 100 residues]YYGGYYSAWMDYWGQGTLVTVSS[no letters for human IgG1 constant region with changes]GGGGSGGGGSEVQLLESGGGLVQPGGSLRLSCAASGFTFDYGSMYWVRQAPGKGLEWVSSISSGSGSTYYADSVKGRFTISRDNSKNTLYLQMNSLRAEDTAVYYCARSSYYGSYYSIDYWGQGTLVTVSSGGGGSGGGGSGGGGSDIQMTQSPSSLSASVGDRVTITCRASQSIRSYLNWYQQKPGKAPKLLIYGASSLHSGVPSRFSGSGSGTDFTLTISSLQPEDFATYYCQQYYDNLPTFGQGTKLEIK
light: B1 light
B8: 1618-1210LO7 (bispecific antibody, human IgG1, kappa)
heavy: EVQLLESGGGLVQPGGSLRLSCAASGFTFSYGSMYWVRQAPGKGLEWVSSISSGSGSTYYADSVKGRFTISRDNSKNTLYLQMNSLRAEDTAVYYCARSSYYGSYYSIDYWGQGTLVTVSS[no letters for human IgG1 constant region with changes]GGGGSGGGGSEVQLLESGGGLVQPGGSLRLSCAASGFDFDSYAMSWVRQAPGKGLEWVSAISGSGGSTYYADSVKGRFTISRDNSKNTLYLQMNSLRAEDTAVYYCARYYGGYYSAWMDYWGQGTLVTVSSGGGGSGGGGSGGGGSDIQMTQSPSSLSASVGDRVTITCRASQSISSALNWYQQKPGKAPKLLIYAASSLHSGVPSRFSGSGSGTDFTLTISSLQPEDFATYYCQQTYGYLHTFGQGTKLEIK
light: B1 light with T91Y, G93D, Y94N, H96P
B9: 1618-1210LO6 (bispecific antibody, human IgG1, kappa)
heavy: EVQLLESGGGLVQPGGSLRLSCAASGFTFSYGSMYWVRQAPGKGLEWVSSISSGSGSTYYADSVKGRFTISRDNSKNTLYLQMNSLRAEDTAVYYCARSSYYGSYYSIDYWGQGTLVTVSS[no letters for human IgG1 constant region with changes]GGGGSGGGGSEVQLLESGGGLVQPGGSLRLSCAASGFTFDSYAMSWVRQAPGKGLEWVSAISGSGGSTYYADSVKGRFTISRDNSKNTLYLQMNSLRAEDTAVYYCARYYGGYYSAWMDYWGQGTLVTVSSGGGGSGGGGSGGGGSDIQMTQSPSSLSASVGDRVTITCRASQSIRSALNWYQQKPGKAPKLLIYAASSLHSGVPSRFSGSGSGTDFTLTISSLQPEDFATYYCQQTYGYLHTFGQGTKLEIK
light: B1 light with T91Y, G93D, Y94N, H96P
B10: 1618-1210LO8 (bispecific antibody, human IgG1, kappa)
heavy: EVQLLESGGGLVQPGGSLRLSCAASGFTFSYGSMYWVRQAPGKGLEWVSSISSGSGSTYYADSVKGRFTISRDNSKNTLYLQMNSLRAEDTAVYYCARSSYYGSYYSIDYWGQGTLVTVSS[no letters for human IgG1 constant region with changes]GGGGSGGGGSEVQLLESGGGLVQPGGSLRLSCAASGFDFESYAMSWVRQAPGKGLEWVSAISGSGGSTYYADSVKGRFTISRDNSKNTLYLQMNSLRAEDTAVYYCARYYGGYYSAWMDYWGQGTLVTVSSGGGGSGGGGSGGGGSDIQMTQSPSSLSASVGDRVTITCRASQSIHQALNWYQQKPGKAPKLLIYGASSLQSGVPSRFSGSGSGTDFTLTISSLQPEDFATYYCQQTYGYLHTFGQGTKLEIK
light: B1 light with T91Y, G93D, Y94N, H96P
B11: 1618-1210LO9 (bispecific antibody, human IgG1, kappa)
heavy: EVQLLESGGGLVQPGGSLRLSCAASGFTFSYGSMYWVRQAPGKGLEWVSSISSGSGSTYYADSVKGRFTISRDNSKNTLYLQMNSLRAEDTAVYYCARSSYYGSYYSIDYWGQGTLVTVSS[no letters for human IgG1 constant region with changes]GGGGSGGGGSEVQLLESGGGLVQPGGSLRLSCAASGFDFDSYAMSWVRQAPGKGLEWVSAISGSGGSTYYADSVKGRFTISRDNSKNTLYLQMNSLRAEDTAVYYCARYYGGYYSAWMDYWGQGTLVTVSSGGGGSGGGGSGGGGSDIQMTQSPSSLSASVGDRVTITCRASQSIHQALNWYQQKPGKAPKLLIYAASSLHSGVPSRFSGSGSGTDFTLTISSLQPEDFATYYCQQTYGYLHTFGQGTKLEIK
light: B1 light with T91Y, G93D, Y94N, H96P

The first assay deals with T2, recombinant human CD137-Fc (R&D #838-4B) (human, UniProt Q07011 24-186).
T2 construct: bought; also called CD137 (R&D #838-4B); not shown: Fc part, bought reagent, not described
T2 sequence (Q07011 24-186 limits assumed): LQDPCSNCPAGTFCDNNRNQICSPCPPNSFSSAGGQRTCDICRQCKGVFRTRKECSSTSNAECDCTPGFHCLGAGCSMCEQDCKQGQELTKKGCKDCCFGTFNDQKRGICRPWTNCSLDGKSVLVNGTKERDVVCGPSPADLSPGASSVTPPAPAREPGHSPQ
In words: BLI Octet, bsAb on anti-Fab-CH1 tips, CD137-Fc as analyte. Background: BLI is a label-free optical method that tracks binding on a fibre tip over time.
In the case of B1, the Kd turned out to be 2.38 nM, the koff amounted to 0.000687 s⁻¹ and the kon was 289000 M⁻¹ s⁻¹.

With B2, the dissociation constant (Kd) was 3.66 nM, the koff is 0.00106 s⁻¹ and the association rate constant (kon) came to 289000 M⁻¹ s⁻¹.

As for B3, the dissociation constant Kd turned out to be 2.98 nM, the koff worked out at 0.000653 s⁻¹ and the kon was 219000 M⁻¹ s⁻¹.

For the molecule B4, the Kd is 3.24 nM, the dissociation rate constant (koff) was found to be 0.00108 s⁻¹ and the kon turned out to be 332000 M⁻¹ s⁻¹.

For the molecule B5, the Kd amounted to 2.38 nM, the koff is 0.000911 s⁻¹ and the kon was 383000 M⁻¹ s⁻¹.

As for B6, the Kd worked out at 2.56 nM, the koff turned out to be 0.000672 s⁻¹ and the kon turned out to be 262000 M⁻¹ s⁻¹.

As for B7, the Kd stood at 2.82 nM and the koff is 0.000995 s⁻¹.

The target of another assay is T1, Human 5T4 (produced in-house). The experiment in a line: BLI Octet, bsAb on anti-Fab-CH1 tips, 5T4 as analyte.
The molecule B8 yielded a Kd of 0.495 nM, a koff of 8.29e-05 s⁻¹ and a kon of 168000 M⁻¹ s⁻¹.

With B9, binding was characterised by a dissociation constant (Kd) of 0.469 nM, the koff is 0.000106 s⁻¹ and the kon came to 227000 M⁻¹ s⁻¹.

The molecule B10 yielded a Kd of 0.498 nM, a koff of 8.83e-05 s⁻¹ and a kon of 177000 M⁻¹ s⁻¹.

Molecule B11 registered a Kd of 0.534 nM, a koff of 0.000125 s⁻¹ and a kon of 235000 M⁻¹ s⁻¹.
